Data on 44 molecules can be found in article PMC4336329 (PLoS ONE, 2015).

SMILES strings stand for the structures. The campaign covered roughly 310,000 compounds. About 14,000 (4.5%) showed an effect of 50% or more. Effects have a minus sign here. This is one part of the list.
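Note: peak tail current of the secondary pulse compared with the same well before compound.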

Sequence of human ether-à-go-go-related gene (hERG) potassium channel (Q12809 whole entry, looked up): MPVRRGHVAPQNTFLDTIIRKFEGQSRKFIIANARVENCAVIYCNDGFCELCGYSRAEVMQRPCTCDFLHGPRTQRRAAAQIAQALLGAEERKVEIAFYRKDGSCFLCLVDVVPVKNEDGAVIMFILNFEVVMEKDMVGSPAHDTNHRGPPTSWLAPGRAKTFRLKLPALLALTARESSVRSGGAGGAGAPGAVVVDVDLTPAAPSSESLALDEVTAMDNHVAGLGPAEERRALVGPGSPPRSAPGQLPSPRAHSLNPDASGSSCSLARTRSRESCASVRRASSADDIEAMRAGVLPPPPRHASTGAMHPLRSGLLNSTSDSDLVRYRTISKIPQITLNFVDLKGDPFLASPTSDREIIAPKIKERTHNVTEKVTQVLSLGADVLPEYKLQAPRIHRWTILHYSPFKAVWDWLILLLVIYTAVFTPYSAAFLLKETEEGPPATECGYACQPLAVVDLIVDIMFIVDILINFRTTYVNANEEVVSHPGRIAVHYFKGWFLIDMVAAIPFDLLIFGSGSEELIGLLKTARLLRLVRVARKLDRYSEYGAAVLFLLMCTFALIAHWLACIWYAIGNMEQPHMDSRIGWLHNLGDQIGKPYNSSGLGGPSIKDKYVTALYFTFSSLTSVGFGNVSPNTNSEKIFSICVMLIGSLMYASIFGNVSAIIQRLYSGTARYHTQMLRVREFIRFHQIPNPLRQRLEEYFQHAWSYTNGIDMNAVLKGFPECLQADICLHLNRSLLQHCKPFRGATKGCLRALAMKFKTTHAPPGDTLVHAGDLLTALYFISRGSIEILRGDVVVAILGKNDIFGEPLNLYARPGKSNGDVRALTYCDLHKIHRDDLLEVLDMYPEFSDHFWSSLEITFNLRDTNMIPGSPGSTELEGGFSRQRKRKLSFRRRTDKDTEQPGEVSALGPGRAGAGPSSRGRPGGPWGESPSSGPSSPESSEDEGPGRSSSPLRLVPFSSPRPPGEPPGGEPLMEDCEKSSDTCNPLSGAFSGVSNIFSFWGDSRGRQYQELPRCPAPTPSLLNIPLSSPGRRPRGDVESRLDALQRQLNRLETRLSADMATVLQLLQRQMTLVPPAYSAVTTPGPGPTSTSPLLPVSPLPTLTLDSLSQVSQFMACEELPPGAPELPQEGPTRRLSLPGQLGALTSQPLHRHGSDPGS

This test has as its target human ether-à-go-go-related gene (hERG) potassium channel (human, UniProt Q12809). Briefly: primary screen, population patch clamp on CHO cells stably expressing hERG.
For `CCOC(=O)C1=C(C)OC(N)=C(C#N)C1c1ccc(C)s1` (centres unmarked), the “hERG current change (%, negative = inhibition) at 10uM” value worked out at 24.8%.

With `COc1ccccc1C(=O)Nc1ccc(N2CCN(C(C)=O)CC2)cc1`, the “hERG current change (%, negative = inhibition) at 10uM” value stood at 3.05%.

Turning to `COC(=O)Cc1c(C)c2cc(Cl)c(OC(=O)c3ccco3)cc2oc1=O`, the “hERG current change (%, negative = inhibition) at 10uM” value was determined as 11.7%.

Consider `COc1ccc(C(=O)Nc2ccc(S(=O)(=O)Nc3ncccn3)cc2)cc1OC`, for which the “hERG current change (%, negative = inhibition) at 10uM” value was -9.94%.

`Cc1ccc(-c2nc(=S)c3c(n2CC2CCCO2)CC(C)(C)OC3)cc1` (centres unmarked): the “hERG current change (%, negative = inhibition) at 10uM” value is given as -14.8%.

On to `CC1(OC(=O)C2CCCC2)C(=O)C=C2C=C(c3ccsc3)N(c3ccccc3)C=C2C1=O` (centres unmarked), for which the “hERG current change (%, negative = inhibition) at 10uM” value is recorded as -0.738%.

Turning to `CC(=O)N/C(=C/c1ccccc1)C(=O)NC(Cc1ccccc1)C(=O)O` (centres unmarked), the “hERG current change (%, negative = inhibition) at 10uM” value is on record as 19.3%.

On to `O=C(NCC(c1ccco1)N1CCc2ccccc2C1)c1cccc([N+](=O)[O-])c1` (centres unmarked), for which the “hERG current change (%, negative = inhibition) at 10uM” value is reported as -67.2%.

Regarding `Nc1cn(C2OC(CO)C(O)C2O)c(=O)[nH]c1=O` (centres unmarked), the “hERG current change (%, negative = inhibition) at 10uM” value came out at 14.4%.

As to `COCCNC(=O)Cn1c(=O)n(CCC(=O)NCCc2ccccc2)c(=O)c2ccccc21`, the “hERG current change (%, negative = inhibition) at 10uM” value is 7.75%.

Turning to `CCOC(=O)c1sc(=N)n(-c2ccc(OC)cc2)c1C`, the “hERG current change (%, negative = inhibition) at 10uM” value is -4.06%.

For `O=C(Cn1cc2c(n1)CCCC2)NCc1cccnc1`, the “hERG current change (%, negative = inhibition) at 10uM” value turned out to be 6.69%.

In the case of `COc1ccc(N(C(C)=O)S(=O)(=O)c2cccs2)cc1`, the “hERG current change (%, negative = inhibition) at 10uM” value worked out at 7.03%.

Take `COC(=O)CSc1nc(NCc2ccccc2)nc(N(C)C)n1`: the “hERG current change (%, negative = inhibition) at 10uM” value is given as 21.3%.

For the molecule `Cc1ccc(C)c(OCCCCN2CCCCC2)c1.O=C(O)C(=O)O`, the “hERG current change (%, negative = inhibition) at 10uM” value is given as -42.1%.

Regarding `CC1CC1C(=O)Nc1nc(-c2ccccc2)cs1` (centres unmarked), the “hERG current change (%, negative = inhibition) at 10uM” value was -6.6%.

Regarding `CCOC(=O)C1CCN(c2cc3c(cc2NC(=O)c2ccccc2Br)n(C)c(=O)n3C)CC1`, the “hERG current change (%, negative = inhibition) at 10uM” value was -37%.

As to `Cc1cc(C(=O)CSc2nnc(-c3ccco3)o2)c(C)n1-c1ccc2c(c1)OCCO2`, the “hERG current change (%, negative = inhibition) at 10uM” value is 7.75%.

For the molecule `O=C(CCC1CCN(C(=O)c2cc(C(F)(F)F)ccc2Cl)CC1)NC1CC1`, the “hERG current change (%, negative = inhibition) at 10uM” value is -0.503%.

On to `CCNC(=S)NC1CC2CCCC(C1)N2Cc1ccc(C)cc1` (centres unmarked), for which the “hERG current change (%, negative = inhibition) at 10uM” value is reported as -48.1%.

With `Cc1ccc(/C(N)=N/OC(=O)c2ccc(Cl)cc2Cl)cc1`, the “hERG current change (%, negative = inhibition) at 10uM” value was 1.37%.

`CC(C)CC(=O)N/C(N)=N/c1nc2ccccc2o1`: the “hERG current change (%, negative = inhibition) at 10uM” value was determined as 1.96%.

For `CCOC(=O)C(Nc1ccc2ccccc2c1)C(=O)OCC`, the “hERG current change (%, negative = inhibition) at 10uM” value is -6.39%.

As to `O=C(NC(=S)Nc1ccc(Cl)cn1)C12CC3CC(CC(C3)C1)C2`, the “hERG current change (%, negative = inhibition) at 10uM” value was -1.08%.

For the molecule `CC(C)(C)OC(=O)NCCCC[C@@H](C(=O)NCCCCCCCCCCC(=O)N1CCN(C(=O)OC(C)(C)C)CC1)n1cc(CCCC(=O)O)nn1`, the “hERG current change (%, negative = inhibition) at 10uM” value turned out to be 4.47%.

Regarding `COc1ccccc1CNC(=O)CCS(=O)(=O)c1ccc2c(c1)CCCN2C(C)=O`, the “hERG current change (%, negative = inhibition) at 10uM” value is given as -3.6%.

For the molecule `CCC(=O)Nc1ccc(NC(=O)CSc2nnnn2CC)cc1C`, the “hERG current change (%, negative = inhibition) at 10uM” value was 4.23%.

Regarding `CC(NC(=O)c1cnc2ccccc2n1)c1ccccc1` (centres unmarked), the “hERG current change (%, negative = inhibition) at 10uM” value is -16.7%.

Consider `CN(Cc1ccccc1)C(=O)COC(=O)C1CCN(S(=O)(=O)c2ccc(Cl)c(C(F)(F)F)c2)CC1`, for which the “hERG current change (%, negative = inhibition) at 10uM” value was -15.8%.

As to `COCCC(=O)N1CCC(Oc2ccc(C(=O)NCc3cccc(C)n3)cc2)CC1`, the “hERG current change (%, negative = inhibition) at 10uM” value stood at 14%.

Regarding `Cc1ccc(NC(=O)c2cccc(NC(=O)CC3SC(N4CCCCC4)=NC3=O)c2)nc1` (centres unmarked), the “hERG current change (%, negative = inhibition) at 10uM” value is recorded as -2.74%.

For `COc1cc(S(=O)(=O)n2cnc3ccccc32)ccc1Br`, the “hERG current change (%, negative = inhibition) at 10uM” value is reported as 13.7%.

For `Oc1ccc(/C=N/N2CCN(Cc3ccccc3)CC2)cc1`, the “hERG current change (%, negative = inhibition) at 10uM” value is 7.33%.

`Cc1nc(SCC(=O)N(C)Cc2ccco2)c2c(C)c(C)sc2n1`: the “hERG current change (%, negative = inhibition) at 10uM” value is recorded as -29.6%.

As to `CCNC(=S)NS(=O)(=O)c1ccc(Cl)cc1`, the “hERG current change (%, negative = inhibition) at 10uM” value worked out at 13.7%.

In the case of `N#C/C(=C\c1ccc(O)c(O)c1)C(=O)N1CCc2ccccc21`, the “hERG current change (%, negative = inhibition) at 10uM” value is given as -10.7%.

With `O=C(C1CC2C=CC1C2)N1CCN(c2ccccc2)CC1` (centres unmarked), the “hERG current change (%, negative = inhibition) at 10uM” value is 2.78%.

Consider `Cc1cc(C)n(C(=O)CSc2nnc(SCC(=O)n3nc(C)cc3C)s2)n1`, for which the “hERG current change (%, negative = inhibition) at 10uM” value turned out to be 0.209%.

In the case of `O=C(NNc1nc2cc3c(cc2s1)OCO3)c1cccc(F)c1`, the “hERG current change (%, negative = inhibition) at 10uM” value came to 7.44%.

Take `Cc1sc2ncn(CC(=O)NCCN3CCOCC3)c(=O)c2c1S(=O)(=O)N1CCC(C)CC1`: the “hERG current change (%, negative = inhibition) at 10uM” value amounted to 19.1%.

In the case of `O=C1OCCC1S(=O)(=O)c1ccc2ccccc2c1` (centres unmarked), the “hERG current change (%, negative = inhibition) at 10uM” value is reported as -6.35%.

For the molecule `CCCCN(C(=O)CSc1nnc(-c2ccccc2OC)n1C)c1c(N)n(Cc2ccccc2)c(=O)[nH]c1=O`, the “hERG current change (%, negative = inhibition) at 10uM” value is on record as 15.1%.

`CN(Cc1ccccc1)CC1CCCN(CCc2ccccc2F)C1` (centres unmarked): the “hERG current change (%, negative = inhibition) at 10uM” value was -49.9%.

Turning to `Cn1c(=O)oc2cc(S(=O)(=O)NCCC(=O)Nc3ccc4c(c3)OCCO4)ccc21`, the “hERG current change (%, negative = inhibition) at 10uM” value is 2.4%.
